Among the data in PubChem BioAssay AID1240 (Sanford-Burnham Center for Chemical Genomics, 2008) are displacement values, retold here.

About 800 (1.6%) of roughly 50,000 compounds showed an effect of 50% or more. Some of the results follow.

For the test, the target named is Bcl-2-like protein 10 (Homo sapiens) (UniProt Q9HD36). Briefly: Phenotype converters, Bcl-B/TR3 peptide binding displacement, primary biochemical FP (AID 1240).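 Note: 0% = Bcl-B with tracer peptide and DMSO and 100% = tracer peptide lacking Bcl-B.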 As to conditions: GST-Bcl-B / FITC-TR3 peptide fluorescence polarization; stronger effect = higher value; compound at 3.75 mg/L. In general terms: Fluorescence polarisation rises when a labelled molecule tumbles more slowly, as on binding a larger partner.
Sequence of UniProt Q9HD36 (Q9HD36 whole entry, looked up): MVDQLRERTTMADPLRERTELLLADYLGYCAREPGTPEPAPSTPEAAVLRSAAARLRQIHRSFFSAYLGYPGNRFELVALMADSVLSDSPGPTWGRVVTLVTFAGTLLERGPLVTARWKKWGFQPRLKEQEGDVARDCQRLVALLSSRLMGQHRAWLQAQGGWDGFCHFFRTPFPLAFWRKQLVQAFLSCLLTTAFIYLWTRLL
On to `CCN(CC)CC(C)C(C)OC(=O)c1ccc(O)cc1` (stereo not given), for which the displacement is -3.5%.
Take `CCc1ccc(-c2csc(/C(C#N)=C/c3ccc(C)o3)n2)cc1`: the displacement is -16.2%.
Turning to `CC(C)c1nnc(NC(=O)/C=C/c2ccccc2)s1`, the displacement is -6%.
In the case of `COc1ccc(C2CC(=O)C3=C(C2)Nc2ccccc2NC3c2ccccc2OC)cc1` (stereo not given), the displacement was -5.8%.
As for `O=C(O)c1ccc(-c2ccc(/C=C3/SC(=O)N(c4ccccc4)C3=O)o2)cc1`, the displacement was determined as 27.7%.
As for `CCCCOc1ccc(C(=O)Nc2cc(-c3nc4ccccc4o3)ccc2OC)cc1`, the displacement was -5.1%.
Turning to `O=C(Cc1ccccc1)N1N=C(c2ccncc2)CC1(O)C(F)(F)F` (stereo not given), the displacement was -3.5%.
`CCOC(=O)c1c(NC(=O)C(C)Oc2ccc(OC)cc2)sc2c1CCC(C)C2` (stereo not given): the displacement was determined as 11.8%.
As to `O=C(Nc1ccccc1)NC(NC(=O)c1ccccc1)C(Cl)Cl` (stereo not given), the displacement was -1.7%.
For the compound `CCCC(=O)NNc1nc2c(c(=O)n1-c1ccccc1)C1(CCCCC1)Cc1ccccc1-2`, the displacement is -11.8%.
Take `COc1ccc(Br)cc1C(=O)Nc1cccc(-c2nc3ncccc3o2)c1C`: the displacement was -3.8%.
Regarding `CCc1nc2ccccc2n1CC(O)COCc1ccccc1` (stereo not given), the displacement was -21.6%.
On to `N#C/C(=C\c1cn(CC(=O)Nc2ccccc2)c2ccccc12)C(=O)Nc1ccccc1Cl`, for which the displacement stood at 126%.
On to `O=C(c1ccc2c(c1)OCCO2)N1CCCCC1`, for which the displacement was -26.4%.
Regarding `COc1ccc(/C=C/C(C)=C/C=C/C(C)=O)cc1`, the displacement is -10.7%.
`Cc1ccc(Cl)cc1NC(=O)COc1cccc(C)c1C`: the displacement came out at 0.6%.
Consider `N#CCSc1nnc(-c2ccccc2)c(-c2ccccc2)n1`, for which the displacement is 3.9%.
`CCOC(=O)c1c(C)nc(C)c(C(=O)OCC)c1-c1cccc(NC(=O)c2ccc(F)cc2)c1`: the displacement was -4.6%.
Consider `O=C(CSc1nc2ccccc2o1)NCC(=O)c1ccccc1`, for which the displacement was -4.6%.
For `C=CCN1C(=O)/C(=C\c2ccc3ccccc3c2)SC1=S`, the displacement was found to be 13.9%.
The result for `COC(=O)C1NN=C(C(=O)c2ccccc2)C1c1ccccc1` (stereo not given) reads -1.2%; that for `COc1cc(NC(=O)c2ccccc2Br)cc(OC)c1`, 7.2%.
To `O=c1/c(=C\c2ccc(OCc3cccc4ccccc34)cc2)sc2nc3ccccc3n12` belongs 11.6%.
For the compound `COc1ccc(-n2c(O)c(C3=c4ccccc4=NC3=O)sc2=O)cc1`, the displacement worked out at 10.5%.
Consider `O=C(Nc1cccc(Br)c1)c1cnccn1`, for which the displacement was -32.3%.
`O=C(c1cc2ccccc2oc1=O)N1c2ccccc2Sc2ccccc21`: the displacement was found to be 9.6%.
Regarding `O=C(NN1C(=O)C2C3C=CC(C4CC34)C2C1=O)c1cccc(Cl)c1` (stereo not given), the displacement is -3.5%.
As for `O=[N+]([O-])c1cccc(/C=N/Nc2cc(N3CCOCC3)nc(N3CCOCC3)n2)c1`, the displacement worked out at 10.2%.
For `Cc1ccc(N2C(=O)NC(=O)/C(=C/c3ccc(C)c([N+](=O)[O-])c3)C2=O)cc1`, the displacement is -16.7%.
In the case of `CCOC(=O)c1ccccc1NC(=O)CCCOc1ccccc1`, the displacement was -5.6%.
